Hit rate of the full screen: of about 310,000 compounds, about 2,200 (0.71%) showed an effect of 50% or more. Effects have a minus sign here. Some of the results follow.
Target: human ether-à-go-go-related gene (hERG) potassium channel (human, UniProt Q12809)
Assay: primary screen, population patch clamp on CHO cells stably expressing hERG

Chain of human ether-à-go-go-related gene (hERG) potassium channel (Q12809 whole entry, looked up): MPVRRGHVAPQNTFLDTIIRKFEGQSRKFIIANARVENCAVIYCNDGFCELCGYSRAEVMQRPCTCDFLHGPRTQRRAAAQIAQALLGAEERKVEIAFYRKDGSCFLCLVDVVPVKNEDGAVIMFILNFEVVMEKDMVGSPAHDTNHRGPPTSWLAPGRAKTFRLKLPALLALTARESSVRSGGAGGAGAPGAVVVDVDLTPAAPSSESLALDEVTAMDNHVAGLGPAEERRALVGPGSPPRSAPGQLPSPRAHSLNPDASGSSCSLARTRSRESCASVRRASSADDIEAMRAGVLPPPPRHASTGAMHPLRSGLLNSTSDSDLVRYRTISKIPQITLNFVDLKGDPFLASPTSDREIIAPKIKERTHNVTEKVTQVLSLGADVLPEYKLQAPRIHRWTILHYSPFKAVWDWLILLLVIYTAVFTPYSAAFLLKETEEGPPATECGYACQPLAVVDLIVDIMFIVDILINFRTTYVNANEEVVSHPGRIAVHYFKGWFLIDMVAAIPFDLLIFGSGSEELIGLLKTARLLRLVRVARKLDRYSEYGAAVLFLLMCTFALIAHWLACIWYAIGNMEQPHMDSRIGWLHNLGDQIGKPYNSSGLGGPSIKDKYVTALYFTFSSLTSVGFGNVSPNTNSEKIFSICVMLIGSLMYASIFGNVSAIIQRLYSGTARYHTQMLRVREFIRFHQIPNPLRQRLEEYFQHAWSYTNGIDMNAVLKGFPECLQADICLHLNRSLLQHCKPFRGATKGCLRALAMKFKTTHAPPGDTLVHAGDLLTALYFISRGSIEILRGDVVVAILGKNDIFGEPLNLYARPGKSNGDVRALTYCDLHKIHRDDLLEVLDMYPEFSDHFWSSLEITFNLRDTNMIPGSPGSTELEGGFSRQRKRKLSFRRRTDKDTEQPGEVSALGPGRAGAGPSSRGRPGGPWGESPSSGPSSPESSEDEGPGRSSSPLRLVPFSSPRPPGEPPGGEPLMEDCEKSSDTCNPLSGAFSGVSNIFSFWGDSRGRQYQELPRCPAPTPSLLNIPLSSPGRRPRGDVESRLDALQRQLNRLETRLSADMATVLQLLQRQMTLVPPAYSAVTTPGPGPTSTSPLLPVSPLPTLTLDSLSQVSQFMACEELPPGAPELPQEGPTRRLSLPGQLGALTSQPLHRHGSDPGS

| Compound | hERG current change (%, negative = inhibition) at 1uM [%] |
| --- | --- |
| CN(C)CCCN(C(=O)c1ccc(S(=O)(=O)N(C)C2CCCCC2)cc1)c1nc2ccc(F)cc2s1.Cl | -5.67 |
| O=C(CN1CCN(c2ccc(Cl)cc2)CC1)N1CCCC1 | 3.25 |
| O=C(CC1SC(=Nc2ccccc2)N(CCc2c[nH]c3ccccc23)C1=O)Nc1ccccc1F (stereo not shown) | 11.2 |
| CCOc1ccccc1N1CCN(CC(O)COCc2cccs2)CC1 (stereo not shown) | -1.54 |
| CC(=O)c1c(C)[nH]c(C(=O)NCCN2CCC(C)CC2)c1C | 5.87 |
| O=C(c1ccc([N+](=O)[O-])cc1)N1CCN(Cc2ccccc2)CC1 | -28.7 |
| CCOc1ccc(-c2nnc3ccc(SCC(=O)N4CCCCC4)nn23)cc1 | 5.46 |
| CCOC(=O)c1ccc(NC(=O)CSc2nnc(NC(=O)c3ccc(S(=O)(=O)N4CCOCC4)cc3)s2)cc1 | 10.5 |
| Cc1ccc(OCCCC(=O)Nc2ccc(N3CCOCC3)cc2)cc1 | 15.9 |
| Cc1cc(C)c(C#N)c(Sc2nnnn2-c2ccccc2)n1 | 3.98 |
| O=C(C1CCN(S(=O)(=O)c2cnc[nH]2)CC1)N1CCc2ccccc2C1 | 16.9 |
| Cc1cc(NC(=O)CCC(=O)N(Cc2ccco2)C2(C(=O)NC3CCCCC3)CCN(C)CC2)no1 | 5.24 |
| COCCn1c(SCC(=O)NC2CC2)nnc1-c1ccco1 | -8.04 |
| COc1ccc(/C=N/NC(=O)C2C(=O)NCC2c2ccccc2)c(OC)c1 (stereo not shown) | 16.6 |
| OC1(c2cccc(C(F)(F)F)c2)CCN(Cc2nc(-c3cnccn3)no2)CC1 | 8.98 |
| O=C(NCc1ccccc1Cl)C1CCC(=O)N(CC2CCCCC2)C1 (stereo not shown) | 11.1 |
| COc1ccc(C2=NN(c3nc(C)cc(C)n3)C(=O)C2)cc1 | 4.48 |
| CCS(=O)(=O)c1ccc(-c2cccc(NC(=O)c3ccc(Br)o3)c2)nn1 | -5.57 |
| Cc1ccc2nc3ccc(N4CCN(C)CC4)nn3c(=O)c2c1 | -13.1 |
| Cc1cc(C)nc(NC(=NCCc2c[nH]c3ccccc23)NC(=O)Nc2ccccc2)n1 | 9.46 |
| CCn1ccnc1[C@@H]1C[C@H]2CN(Cc3cccc(Cl)c3)C(=O)[C@]23CCCN13 | -5.37 |
| CCOC(=O)C1=C(C)Nc2nnnn2C1c1ccc(OC)c(Br)c1 (stereo not shown) | 6.07 |
| CCOc1ccc(N2C(=O)/C(=C/c3ccc(C)o3)C(=O)NC2=S)cc1 | 15.3 |
| Fc1ccc(-n2nnc(-c3ccnc4ccccc34)n2)cc1 | 4.08 |
| CC(=O)Nc1ccc(-c2nnc(SCc3ccccc3C#N)n2C)cc1 | -5.5 |
| Cc1cc(C)nc(NC(=O)CCN2C(=O)c3ccccc3S2(=O)=O)n1 | 5.72 |
| Brc1ccc(-c2nc(-c3ccncc3)no2)cc1 | 13.9 |
| COc1cc(OC)cc(C(=O)OCCCOC(=O)c2cc(OC)cc(OC)c2)c1 | 12.7 |

| Compound | hERG current change (%, negative = inhibition) at 1uM [%] |
| --- | --- |
| CN1CCN(/N=C/c2c[nH]c3ccccc23)CC1 | 13.3 |
| NC(=O)N/N=C/CCc1ccccc1 | 9.92 |
| CC(C)C(NC(=O)c1ccco1)C(=O)OCC(=O)c1ccccc1 (stereo not shown) | 13.9 |
| Cc1cc(C)nc(NS(=O)(=O)c2ccc(NC(=S)NC(=O)C3CCCC3)cc2)n1 | 4.48 |
| CCN(C(=O)CSc1nc2cc(Cl)ccc2c(=O)n1CC(C)C)C1CCS(=O)(=O)C1 (stereo not shown) | 10.7 |
| CCOc1ccc2nc(SCC(=O)NCc3ccccc3OC)[nH]c2c1 | 4.31 |
| Nc1cc(C(=O)OCC(=O)c2ccc(CC(=O)N3CCOCC3)s2)ccc1Cl | 14.6 |
| Cc1cc(C)n(-c2nc3c(c(=O)[nH]c(=O)n3C)n2Cc2ccccc2)n1 | 10.1 |
| CCOC(=O)N1CCN(C(C)C(=O)c2c[nH]c3ccccc23)CC1 (stereo not shown) | -0.111 |
| CCc1ccc2[nH]c(=O)c(CN(CCN3CCCC3)C(=O)NC3CCCCC3)cc2c1 | -8.52 |
| O=C(c1ccccc1)[C@@H]1[C@@H]2C(=O)N(c3ccc(F)cc3)C(=O)[C@@H]2C2CCCN21 (stereo partly shown) | 9.06 |
| CCOC(=O)C1CCCN(C(=S)Nc2ccc(F)cc2)C1 (stereo not shown) | 14.7 |
| COc1cccc(C(=O)/C=C/Nc2ccc(S(=O)(=O)Nc3cc(OC)nc(OC)n3)cc2)c1 | 21 |
| Cc1ccc(CCC(=O)Nc2cc(Cl)ccc2Cl)o1 | 7.21 |
| CCOc1ccccc1NC(=O)COC(=O)CN(C)S(=O)(=O)c1ccc(C)cc1 | 2.44 |
| Cc1ccc(S(=O)(=O)CCC(=O)OCC(=O)NC(C)c2ccc(F)cc2)cc1 (stereo not shown) | 8.62 |
| O=C(Nc1ccccc1N1CCCC1)c1cc(Cl)ccc1Cl | 8.76 |
| CC(C)=NOc1nc(NC(=O)NS(=O)(=O)c2ccccc2Cl)nc(N(C)C)n1 | 15.4 |
| O=C(NN1CC(=O)N(c2cc(Cl)cc(Cl)c2)CC1=O)c1sccc1Cl | 11.9 |
| CCN(C(=O)CN1C(=O)NC2(CCCc3ccccc32)C1=O)c1ccc(F)cc1 (stereo not shown) | 10.6 |
| O=C(CCNC(=O)c1ccccc1)NCc1ccccc1F | 6.19 |
| Cc1csc(Nc2nc(N)c(C(=O)Nc3ccccc3)o2)n1 | 17.3 |
| CC(=O)c1cccc(NC(=O)C2CC(c3ccc(F)cc3)=NO2)c1 (stereo not shown) | 10.3 |
| CSc1ccccc1OCc1cc(C(=O)NC(C)Cc2cccc(C)n2)no1 (stereo not shown) | 1.95 |
| Cc1ccc(SCC2=NNC(=O)C2)cc1 | -8.67 |
| C=CCn1c(=O)c2ccccc2n2c(SC(C)C(=O)Nc3nc(-c4ccccc4)cs3)nnc12 (stereo not shown) | -0.718 |
| O=C(COC(=O)[C@H](Cc1ccccc1)NC(=O)c1cccs1)NC1CC1 | 4.45 |

Source: article PMC4336329 (PLoS ONE, 2015)
